Experimental data published in PubChem BioAssay AID1645882 (National Center for Advancing Translational Sciences (NCATS), 2021).
Several values for one entry are separate records, joined by “and”; a condition that tells them apart may be missing. Equal entries are not always repeated. Out of some 16,000 compounds screened, about 120 (0.75%) were called active. Not shown: some 4% with an inconclusive outcome. The call rests on the fitted dose curve; in most records, active means well fitted inhibition curve with a large enough effect; inconclusive means small, poorly fitted or top-dose-only effect; inactive means no such curve, though single readings can be large or run the other way. This is one part of the list. Where a SMILES comes first, the peptide text is derived from it. Bridges are numbered along the chain shown (N, C = ends). [ ]: non-standard residue; d: D form. The star is where a group is joined. Dab(CH2SO3H) = N[C@@H](CCNCS(=O)(=O)O)C(=O)O; X8 = CC[C@@H](C)CCCCC(=O)*; Dab = NCC[C@H](N)C(=O)O

Biological target: Rap guanine nucleotide exchange factor 3 (Homo sapiens) (UniProt O95398)
Assay: Validation qHTS for antagonist of cAMP-regulated guanine nucleotide exchange factor 3 (EPAC1); further: nearly all actives have a fitted effect of over 75% in size;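 on activity change, negative = inhibition: plate controls were DMSO for no effect and ATA control for full effect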
Details: EPAC1 Rap1B-BODIPY-GDP exchange, fluorescence; series mostly up to 150 µM; activity change, negative = inhibition: at the top concentration
How it was run: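 EPAC1 (100 nM) mixed with 250 nM RAP1B-BODIPY-GDP and 50 uM GDP; compounds in concentration series, 5 min at room temperature. Fluorescence (ex 480/em 540 nm) read every 5 min for 30 min; normalized to ATA control and DMSO.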
Potency means the concentration at half of the fitted maximal effect.

UniProt O95398, sequence (O95398 whole entry, looked up): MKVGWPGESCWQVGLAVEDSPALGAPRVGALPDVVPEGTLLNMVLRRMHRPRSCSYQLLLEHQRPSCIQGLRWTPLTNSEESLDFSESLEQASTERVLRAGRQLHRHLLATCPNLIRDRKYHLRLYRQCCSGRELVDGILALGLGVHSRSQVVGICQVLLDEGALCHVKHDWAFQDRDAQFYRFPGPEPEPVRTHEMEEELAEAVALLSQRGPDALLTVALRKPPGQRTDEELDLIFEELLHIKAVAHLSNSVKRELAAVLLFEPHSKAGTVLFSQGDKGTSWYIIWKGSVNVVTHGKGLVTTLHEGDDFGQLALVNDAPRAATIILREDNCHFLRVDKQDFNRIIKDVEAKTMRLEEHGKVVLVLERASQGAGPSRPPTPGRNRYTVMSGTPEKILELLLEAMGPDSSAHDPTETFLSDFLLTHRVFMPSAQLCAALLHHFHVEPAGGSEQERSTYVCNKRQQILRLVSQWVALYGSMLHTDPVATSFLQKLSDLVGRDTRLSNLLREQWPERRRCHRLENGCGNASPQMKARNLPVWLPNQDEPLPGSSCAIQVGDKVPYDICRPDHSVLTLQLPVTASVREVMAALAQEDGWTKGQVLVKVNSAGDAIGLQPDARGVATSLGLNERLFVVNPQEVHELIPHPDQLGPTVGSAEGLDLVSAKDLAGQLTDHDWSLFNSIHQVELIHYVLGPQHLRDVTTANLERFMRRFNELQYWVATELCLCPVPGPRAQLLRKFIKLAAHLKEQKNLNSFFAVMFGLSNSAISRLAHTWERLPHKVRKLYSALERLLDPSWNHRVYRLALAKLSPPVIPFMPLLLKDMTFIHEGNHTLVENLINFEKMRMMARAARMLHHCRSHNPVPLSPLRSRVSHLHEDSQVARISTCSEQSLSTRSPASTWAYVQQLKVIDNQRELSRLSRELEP

| SMILES | activity change, negative = inhibition | Potency |
| --- | --- | --- |
| COc1ccc(SC[C@H](C)CN2CC[C@H](NC(=O)OCc3ccccc3)CCC2=O)cc1 | inactive: -19.9% |  |
| CN1CCN(c2nc(-c3ccc4c(c3)OCO4)nc3ccccc23)CC1 | inactive: -10.3% |  |
| CN1CCN(c2ncc3nc(-c4ccccc4)c(=O)n(CCC#N)c3n2)CC1 | inactive: 5.83% |  |
| CC(C(O)c1ccc(O)cc1)N1CCC(Cc2ccccc2)CC1 (configuration not stated) | inactive |  |
| CN(Cc1ccccc1)Cc1ccccc1 | inactive: 12.1% |  |
| CCCCCCCCCCCCCCCC(=O)N[C@@H](COP(=O)(O)O)C(=O)O | inactive: 15.3% [at 15.3 µM] |  |
| O=c1ccn([C@@H]2O[C@H](COP(=O)(O)OP(=O)(O)O)[C@@H](O)[C@H]2O)c(=O)[nH]1 | inactive |  |
| O=c1cc(-c2ccccc2)oc2ccccc12 | inactive: 15% [at 320 µM] |  |
| COCc1c(C(=O)N2CCCCC2c2cccnc2)cnn1-c1ncc2c(n1)-c1ccccc1CCC2 (configuration not stated) | inactive: 21.1% |  |
| Cc1ccc(OCC(O)C(C)NC(C)C)c2c1CCC2 (configuration not stated) | inactive: -15% |  |
| CN(C)c1ncc2nc(-c3cccc(C#N)c3)c(=O)n(C)c2n1 | inactive: 17.4% |  |
| CCCn1c(=O)c(C)cn2nc(N)nc12 | inactive |  |
| c1ccc2cc(C3=NCCN3)ncc2c1 | inactive: 23.3% |  |
| COCCn1c(=O)cnc2cnc(N3CCNCC3)nc21 | inactive: 9.77% |  |
| O=C(c1csnn1)N1CCC[C@@]2(CCN(Cc3cc(C(F)(F)F)cc(C(F)(F)F)c3)C2)C1 | inactive: 1.84% |  |
| O=C(O)C1=CC(=C(c2ccc(O)c(C(=O)O)c2)c2ccc(O)c(C(=O)O)c2)C=CC1=O |  | active: 56.2 µM and active: 1.58 µM |
| COc1cc(SC)ccc1C(=O)N1CCC(Cc2ccccc2)CC1 | inactive: -23.2% [at 75.8 µM] |  |
| CC(=O)Nc1ccccc1-c1nc(CNC(=O)c2ccc(Cl)cc2)c(C)o1 | inactive: 6.58% |  |
| Cn1cccc1C(=O)N1CCC2(CC1)CN(Cc1ccc(C#N)cc1)C2 | inactive: 11.7% |  |
| N#CCCn1c(=O)cnc2cnc(Oc3cccc(Cl)c3)nc21 | inactive: 1.48% |  |
| Cn1c(CCNC(=O)C2CC23CCN(C(=O)C2=CCCC2)CC3)nc2ccccc21 (configuration not stated) | inactive: 20.1% |  |
| CC#C[C@]1(O)CC[C@H]2[C@@H]3CCC4=CC(=O)CCC4=C3[C@@H](c3ccc(N(C)C)cc3)C[C@@]21C | inactive |  |
| Cc1csc(CN(C)C(=O)c2sc3ncnc(NCC4CCCO4)c3c2C)n1 (configuration not stated) | inactive: 7.98% |  |

| SMILES | activity change, negative = inhibition | Potency |
| --- | --- | --- |
| COc1ccc(C(=O)N2CCC3(CC2)CCN(c2ccccn2)CC3)cc1 | inactive: -2.75% |  |
| C[C@H]1NCc2cc(-c3ccc4c(=O)c(C(=O)O)cn(C5CC5)c4c3OC(F)F)ccc21 | inactive: 19.3% |  |
| C[N+]1(CC2COC(c3ccccc3)(c3ccccc3)O2)CCCCC1 (configuration not stated) | inactive: 24.7% |  |
| O=C(C[N+]1(c2ccccc2)CCOCC1)c1ccccc1 | inactive: 13.6% |  |
| Cc1ccc2c(c1)CC[C@H]1CC(=O)CC[C@@]21C | inactive: 4.99% |  |
| CC(c1ccc(N(C)C)cc1)c1ccnc2ccccc12 (configuration not stated) | inactive: -1.54% |  |
| Cc1cc(C(=O)Nc2cccc(-c3nc(CNC(=O)c4sc(C)nc4C)c(C)o3)c2)c(C)o1 | inactive: 18.1% |  |
| Cc1c(C(=O)N2CCOc3ccc(Cl)cc3C2)sc2ncnc(NCCc3ccccn3)c12 | inactive: 11.2% |  |
| CC[C@@H]1[C@H]2CCCC(=O)N3CC[C@@H](C[C@@H]1OC(=O)NCc1ccccc1)[C@@H]23 | inactive: -11% |  |
| COc1ccc(Cl)cc1C(=O)NCCc1ccc(S(=O)(=O)NC(=O)NC2CCCCC2)cc1 | inactive |  |
| Nc1nc(=O)n([C@@H]2CS[C@H](CO)O2)cc1F | inactive: 6.72% |  |
| O=C(c1cccc(F)c1)N1CCC2(CC1)CCN(c1ccccc1)CC2 | inactive: 8.57% |  |
| NC(N)=NCCCC(NC(=O)C(N)Cc1ccc(O)cc1)C(=O)O (configuration not stated) | inactive: 19.2% |  |
| COc1cc(CNC(=O)c2cnn(-c3ncc4c(n3)-c3ccccc3CC4)c2C)cc(OC)c1OC | inactive: 13.4% |  |
| COc1ccc(-c2nc3cnc(N4CCN(C)CC4)nc3n(C)c2=O)cc1 | inactive: 8.08% |  |
| CCNc1ncc2nc(CCc3ccccc3)c(=O)n(-c3ccc(OC)cc3)c2n1 | inactive: -6.35% |  |
| C=C(CO)C1Cc2c(ccc3c(=O)c4c(oc23)COc2cc(OC)c(OC)cc2-4)O1 (configuration not stated) | inactive: 13.6% |  |
| CCN(CC)CCNC(=O)COc1ccc(Cl)cc1 | inactive: -14.3% |  |
| O=C(c1cnccn1)N1CCC[C@@]2(CCN(c3ccncc3)C2)C1 | inactive: -0.95% |  |
| COC(=O)C1CCN(Cc2ccc3c(c2)CN(C(=O)c2cc(C4CC4)on2)CCO3)CC1 | inactive: 3.82% |  |
| CC(C)C(O)c1ccc2c(c1)CN(C(=O)c1ccccc1-n1cccn1)CCO2 (configuration not stated) | inactive: 6.93% |  |
| CCCCCCNC(=O)n1cc(F)c(=O)[nH]c1=O | inactive: 16% |  |
| O=C(O)C1CC(C2CCCCN2)CN2CCCCC12 (configuration not stated) | inactive: 17.3% |  |

| SMILES | activity change, negative = inhibition | Potency |
| --- | --- | --- |
| CCC[C@@H]1C[C@@H](C(=O)N[C@@H]([C@H]2O[C@H](SC)[C@H](OP(=O)(O)O)[C@@H](O)[C@H]2O)[C@H](C)Cl)N(C)C1 | inactive |  |
| CCc1cc(C(=O)NCC2Cc3cc(C)cc(-c4cc(C(C)=O)ccc4F)c3O2)n(C)n1 (configuration not stated) | inactive: -1.57% |  |
| O=c1ccn(C2OC(COP(=O)(O)OP(=O)(O)OP(=O)(O)O)C(O)C2O)c(=O)[nH]1 (configuration not stated) | inactive: -8.4% |  |
| CN[C@@H]1[C@@H](O[C@H]2O[C@H](CO)[C@@H](N)[C@H](O)[C@H]2O)O[C@H]2C[C@@H](N)[C@@H](O[C@H]3[C@H](O)[C@@H](O)[C@H](N)C[C@@H]3N)O[C@@H]2[C@@H]1O | inactive: 14.8% [at 75.8 µM] |  |
| CCS(=O)(=O)Nc1cc(C(=O)N[C@H]2CCCCNC2=O)c2c(c1)nc(-c1ccccc1)n2C | inactive: 23.9% |  |
| c1cncc(CNc2cc(-c3ccoc3)ncn2)c1 | inactive: 5.08% |  |
| CC(C)OC(=O)c1cc(C(=O)OC(C)C)cc([N+](=O)[O-])c1 | inactive: 15.6% [at 320 µM] |  |
| COc1cccc2c1C(=O)c1c(O)c3c(c(O)c1C2=O)C[C@@](O)(C(=O)CO)C[C@@H]3O[C@H]1C[C@H](N)[C@H](O[C@@H]2CCCCO2)[C@H](C)O1 | inactive: -22.8% |  |
| COC(=O)c1c(OCc2ccccn2)cc(=O)n2c1CCN(C(=O)c1cc(C(C)C)nn1C)CC2 | inactive: 2.61% |  |
| COc1cc([C@@H]2c3cc4c(cc3[C@@H](O[C@@H]3O[C@@H]5CO[C@@H](C)O[C@@H]5[C@H](O)[C@@H]3O)[C@H]3COC(=O)[C@H]23)OCO4)cc(OC)c1O | inactive: 19.9% [at 39.6 µM] |  |
| COC(=O)C1=CO[C@@H](O)[C@@H]2C(CO)=CC[C@H]12 | inactive: 5.88% [at 75.8 µM] |  |
| COCCn1c(=O)c(-c2ccc(OC)cc2)nc2cnc(Oc3ccccc3)nc21 | inactive: 6.68% |  |
| CC(=O)Nc1ccn(C2COC(COC(=O)c3ccccc3)O2)c(=O)n1 (configuration not stated) | inactive: -15.3% |  |
| NC(=S)N=Nc1ccc(NN=C(N)N)cc1 | inactive: -4.56% |  |
| COc1ccc(-c2nc3cnc(OC)nc3n(Cc3cccs3)c2=O)cc1 | inactive: 12.9% |  |
| Cc1ccc(C(=O)Nc2cccc(-c3nc(CNC(=O)C4CCCCC4)c(C)o3)c2)s1 | inactive: 9.78% |  |
| O=c1c(-c2ccc(F)cc2)nc2cncnc2n1Cc1ccc(F)cc1 | inactive: 14.3% |  |
| CCCCCCCCCCCCCCC[C@@H](O)[C@H](CO)NC(=O)CCCCCCC | inactive: 16.6% [at 15.3 µM] |  |
| O=C1NCC2(CCN(CCc3ccccc3)CC2)O1 | inactive |  |
| O=C(NC1CCN(Cc2ccccc2)C1)c1cnn(-c2ncc3c(n2)-c2ccccc2CC3)c1C1CC1 (configuration not stated) | inactive: 8.27% |  |
| CCNc1ncc2ncc(=O)n(Cc3ccc(F)cc3)c2n1 | inactive: -5.36% |  |
| CC[C@@H](C)CCCCC(=O)N[C@@H](CCNCS(=O)(=O)O)C(=O)N[C@H](C(=O)N[C@@H](CCNCS(=O)(=O)O)C(=O)N[C@H]1CCNC(=O)[C@H]([C@@H](C)O)NC(=O)[C@H](CCNCS(=O)(=O)O)NC(=O)[C@H](CCNCS(=O)(=O)O)NC(=O)[C@H](CC(C)C)NC(=O)[C@@H](CC(C)C)NC(=O)[C@H](CCNCS(=O)(=O)O)NC1=O)[C@@H](C)O (X8-[Dab(CH2SO3H)]T[Dab(CH2SO3H)][Dab][Dab(CH2SO3H)][dL]L[Dab(CH2SO3H)][Dab(CH2SO3H)]T; lactam 4-C) | inactive: -23.5% |  |
| Clc1ccc2c(c1)CCc1cccnc1C2=C1CCNCC1 | inactive |  |

| SMILES | activity change, negative = inhibition | Potency |
| --- | --- | --- |
| COc1cc(/C=C\c2ccc(OC)cc2OC)cc(OC)c1 | inactive: -2.57% |  |
| O=C(Nc1cccc(F)c1)N1CC[C@@]2(CCCN(C(=O)c3ccco3)C2)C1 | inactive: 21% |  |
| Cc1cc(C(=O)NCC2CCC3(CCN(Cc4cc(F)ccc4F)CC3)O2)n(C)n1 (configuration not stated) | inactive: 20.5% |  |
| N#Cc1ccc(CN2CCC3(CC2)CCN(S(=O)(=O)c2ccccc2)CC3)cc1 | inactive: -11.5% |  |
| COc1cc2c(c(OC)c1OC)-c1ccc(OC)c(=O)cc1C(NC(C)=O)CC2 (configuration not stated) | inactive: -2.07% |  |
| COc1ccccc1N1CCN(c2nc(CNC(=O)c3ccc4c(c3)OCO4)nc3ccccc23)CC1 | inactive: 8.89% |  |
| COc1ccc2cnoc(=O)c2c1OC | inactive: 9.04% |  |
| O=C1CC[C@H](O)CCN1[C@H](CSc1ccc(Br)cc1)Cc1ccccc1 | inactive: 2.81% |  |
| CSC(=N)N | inactive |  |
| O=c1c(CCc2ccccc2)nc2cncnc2n1Cc1ccccc1Cl | inactive: -1.38% |  |
| CN(C)Cc1ccccc1-c1nc(N(C)Cc2ccco2)c2ccccc2n1 | inactive: 2.28% |  |
| CN(CCCN1c2ccccc2CCc2ccccc21)CC(=O)c1ccc(Cl)cc1 | inactive: 5.91% |  |
| CC(=O)[C@@]1(O)[C@H](O)CC2C3CCC4CC(O)CC[C@]4(C)C3CC[C@@]21C (some centres not stated) | inactive: 10.4% |  |
| O=C1CCN(Cc2cccnc2)CCN1[C@H](CO)c1ccccc1 | inactive: 10.3% |  |
| COc1ccccc1CNc1ncnc2sc(C(=O)N3CCN(C)CC3)c(C)c12 | inactive: 17.9% |  |
| COCCNc1nc(-c2cccc(NS(C)(=O)=O)c2)nc2ccccc12 | inactive: -9.11% |  |
| N#CCCn1c(=O)c(-c2cccc(C#N)c2)nc2cnc(Oc3ccccc3)nc21 | inactive: 12.8% |  |
| O=C(C[n+]1cccc(Br)c1)c1ccc(F)cc1 | inactive: 16% |  |
| CCOC(=O)Cc1ccc(-c2ccccc2)cc1 | inactive: 5.63% |  |
| O=C(CCCCCN1CCN(c2ccccc2-c2ccccc2)CC1)NC1CCCc2ccccc21 (configuration not stated) | inactive: -13% [at 75.8 µM] |  |
| Cc1ccc(CN2C[C@H](Sc3ccccn3)C[C@H]2C(=O)Nc2ccc3sc(C)nc3c2)cc1 | inactive: 4.97% |  |
| CCNc1ncc2nc(CCc3ccccc3)c(=O)n(-c3ccccc3)c2n1 | inactive: 9.74% |  |
| Cc1cc2nc3c(=O)[nH]c(=O)nc-3n(C[C@H](O)[C@H](O)[C@H](O)CO)c2cc1C | inactive |  |
